Results are given in words; binding and its absence hold for the method and conditions named. Binding seen in cells or lysates may run through a third protein. Some entries that bind do so weakly or less than the wild type.

Sequences of proteins named here, by UniProt entry; tags and fusion partners are left off. A change or cut given only in a name is not applied to a line headed by its entry. A line that says so, or that is headed by a name, gives the form on record, which may keep a tag or linker. Residues count along the entry.
UniProt Q15717: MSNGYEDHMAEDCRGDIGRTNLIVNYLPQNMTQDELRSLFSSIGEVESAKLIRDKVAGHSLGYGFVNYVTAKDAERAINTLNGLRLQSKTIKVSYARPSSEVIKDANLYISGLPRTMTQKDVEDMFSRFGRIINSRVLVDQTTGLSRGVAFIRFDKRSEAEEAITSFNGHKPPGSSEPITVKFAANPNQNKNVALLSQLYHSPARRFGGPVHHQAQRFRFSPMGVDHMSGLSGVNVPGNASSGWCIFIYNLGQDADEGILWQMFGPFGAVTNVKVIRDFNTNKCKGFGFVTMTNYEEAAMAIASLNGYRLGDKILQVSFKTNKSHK
HA-tagged LOXL2 wild type (Q9Y4K0, residues 26-774): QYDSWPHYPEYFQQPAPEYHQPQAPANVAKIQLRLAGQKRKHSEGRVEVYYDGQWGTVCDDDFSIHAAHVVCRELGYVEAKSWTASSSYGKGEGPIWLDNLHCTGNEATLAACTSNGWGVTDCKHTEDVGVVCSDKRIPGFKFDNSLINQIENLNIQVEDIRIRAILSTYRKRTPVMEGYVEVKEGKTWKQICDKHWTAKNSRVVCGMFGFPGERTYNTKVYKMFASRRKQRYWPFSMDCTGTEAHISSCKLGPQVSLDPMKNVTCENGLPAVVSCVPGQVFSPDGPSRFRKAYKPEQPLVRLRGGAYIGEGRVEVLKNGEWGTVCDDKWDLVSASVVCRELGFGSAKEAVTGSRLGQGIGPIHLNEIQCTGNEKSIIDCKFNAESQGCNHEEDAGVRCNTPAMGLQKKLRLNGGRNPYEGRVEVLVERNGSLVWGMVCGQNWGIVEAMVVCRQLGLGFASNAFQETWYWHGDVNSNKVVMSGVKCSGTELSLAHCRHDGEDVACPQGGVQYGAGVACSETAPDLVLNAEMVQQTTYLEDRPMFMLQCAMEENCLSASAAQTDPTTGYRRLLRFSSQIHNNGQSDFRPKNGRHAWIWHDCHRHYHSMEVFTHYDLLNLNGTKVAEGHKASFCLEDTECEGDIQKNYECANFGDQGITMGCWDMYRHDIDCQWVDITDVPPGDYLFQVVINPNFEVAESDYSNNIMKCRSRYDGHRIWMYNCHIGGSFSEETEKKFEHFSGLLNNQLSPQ
HA-tagged LOXL2 mutant carrying a deletion of the SRCR-1 domain (Q9Y4K0, form named): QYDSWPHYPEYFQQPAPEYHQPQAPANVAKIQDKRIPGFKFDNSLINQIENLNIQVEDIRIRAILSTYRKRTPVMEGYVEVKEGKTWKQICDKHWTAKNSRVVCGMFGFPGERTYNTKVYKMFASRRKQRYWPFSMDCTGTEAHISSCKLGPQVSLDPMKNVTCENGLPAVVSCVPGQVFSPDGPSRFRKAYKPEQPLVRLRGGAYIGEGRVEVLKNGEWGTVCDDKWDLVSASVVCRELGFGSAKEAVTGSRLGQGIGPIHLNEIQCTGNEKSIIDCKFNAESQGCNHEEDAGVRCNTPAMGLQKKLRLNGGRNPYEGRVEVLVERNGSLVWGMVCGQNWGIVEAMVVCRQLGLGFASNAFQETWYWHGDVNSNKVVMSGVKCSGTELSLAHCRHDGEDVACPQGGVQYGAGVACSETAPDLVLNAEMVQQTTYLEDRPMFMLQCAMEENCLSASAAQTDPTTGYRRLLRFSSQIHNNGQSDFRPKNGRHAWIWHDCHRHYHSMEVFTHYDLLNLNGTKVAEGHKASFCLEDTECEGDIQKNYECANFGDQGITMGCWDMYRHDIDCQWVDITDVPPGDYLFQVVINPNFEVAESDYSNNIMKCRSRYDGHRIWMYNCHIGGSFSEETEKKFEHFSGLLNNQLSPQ
UniProt P11021, residues 19-654: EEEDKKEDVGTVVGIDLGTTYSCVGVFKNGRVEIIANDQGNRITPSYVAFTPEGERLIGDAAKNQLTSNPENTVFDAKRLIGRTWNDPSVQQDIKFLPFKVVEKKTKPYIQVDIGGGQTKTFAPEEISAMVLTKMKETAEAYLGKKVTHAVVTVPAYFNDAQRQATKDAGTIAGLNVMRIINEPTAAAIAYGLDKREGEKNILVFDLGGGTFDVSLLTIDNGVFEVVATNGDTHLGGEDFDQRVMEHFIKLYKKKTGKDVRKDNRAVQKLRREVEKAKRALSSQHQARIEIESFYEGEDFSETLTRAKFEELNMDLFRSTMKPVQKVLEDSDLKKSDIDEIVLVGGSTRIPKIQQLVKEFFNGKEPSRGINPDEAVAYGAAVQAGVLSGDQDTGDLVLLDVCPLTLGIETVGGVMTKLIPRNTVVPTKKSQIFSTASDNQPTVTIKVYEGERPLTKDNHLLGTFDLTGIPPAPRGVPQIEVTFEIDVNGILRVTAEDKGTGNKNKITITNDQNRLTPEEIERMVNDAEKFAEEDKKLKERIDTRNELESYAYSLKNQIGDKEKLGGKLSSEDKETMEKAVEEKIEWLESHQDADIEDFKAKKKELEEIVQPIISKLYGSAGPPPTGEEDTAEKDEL

Assay [1] has as its target ELAVL1 (ELAV-like RNA-binding protein 1) (human (endogenous in HEK293T)) (UniProt Q15717). As to the kind of experiment: co-IP; whole-cell lysates of HEK293T cells transfected with HA-LOXL2 WT or SRCR-deletion mutants, precipitated with anti-ELAVL1/HuR antibody in IP buffer (50 mM Tris-HCl pH 7.4, 150 mM NaCl, 5 mM EDTA, 1% Triton X-100), overnight at 4 °C; blot with anti-LOXL2.

Assay [2] has as its target HA-tagged LOXL2 mutant carrying a deletion of the SRCR-1 domain (human) (UniProt Q9Y4K0). The experiment in a line: co-IP; lysates of HEK293T cells transfected with HA-LOXL2 WT or Δ-1, precipitated with anti-HA antibody in IP buffer (50 mM Tris-HCl pH 7.4, 150 mM NaCl, 5 mM EDTA, 1% Triton X-100), overnight at 4 °C; blots for HSPA5, HNRNPC, MATRIN3 and HNRNPM.
Assay [3] has as its target HA-tagged LOXL2 wild type (human) (UniProt Q9Y4K0). The description is as above.

As for “HA-tagged LOXL2 wild type (from UniProt Q9Y4K0 26-774) (enzyme)”, the binding result in assay [1] is given as “binds”.
With HSPA5 (from UniProt P11021 19-654), the values for the binding entry in assay [2] and in assay [3] were “no binding” and “binds”, respectively.
Regarding “HA-tagged LOXL2 mutant carrying a deletion of the SRCR-1 domain (from UniProt Q9Y4K0 26-774) (enzyme)”, the binding result in assay [1] is reported as “no binding”.

B1: MATRIN3 (protein, UniProt P43243 1-847)
chain: MSKSFQQSSLSRDSQGHGRDLSAAGIGLLAAATQSLSMPASLGRMNQGTARLASLMNLGMSSSLNQQGAHSALSSASTSSHNLQSIFNIGSRGPLPLSSQHRGDADQASNILASFGLSARDLDELSRYPEDKITPENLPQILLQLKRRRTEEGPTLSYGRDGRSATREPPYRVPRDDWEEKRHFRRDSFDDRGPSLNPVLDYDHGSRSQESGYYDRMDYEDDRLRDGERCRDDSFFGETSHNYHKFDSEYERMGRGPGPLQERSLFEKKRGAPPSSNIEDFHGLLPKGYPHLCSICDLPVHSNKEWSQHINGASHSRRCQLLLEIYPEWNPDNDTGHTMGDPFMLQQSTNPAPGILGPPPPSFHLGGPAVGPRGNLGAGNGNLQGPRHMQKGRVETSRVVHIMDFQRGKNLRYQLLQLVEPFGVISNHLILNKINEAFIEMATTEDAQAAVDYYTTTPALVFGKPVRVHLSQKYKRIKKPEGKPDQKFDQKQELGRVIHLSNLPHSGYSDSAVLKLAEPYGKIKNYILMRMKSQAFIEMETREDAMAMVDHCLKKALWFQGRCVKVDLSEKYKKLVLRIPNRGIDLLKKDKSRKRSYSPDGKESPSDKKSKTDGSQKTESSTEGKEQEEKSGEDGEKDTKDDQTEQEPNMLLESEDELLVDEEEAAALLESGSSVGDETDLANLGDVASDGKKEPSDKAVKKDGSASAAAKKKLKKVDKIEELDQENEAALENGIKNEENTEPGAESSENADDPNKDTSENADGQSDENKDDYTIPDEYRIGPYQPNVPVGIDYVIPKTGFYCKLCSLFYTNEEVAKNTHCSSLPHYQKLKKFLNKLAEERRQKKET
B1: the binding entry in assay [2] was “no binding”; in assay [3], “binds”.

B2: HNRNPM (protein, UniProt P52272 1-730)
chain: MAAGVEAAAEVAATEIKMEEESGAPGVPSGNGAPGPKGEGERPAQNEKRKEKNIKRGGNRFEPYANPTKRYRAFITNIPFDVKWQSLKDLVKEKVGEVTYVELLMDAEGKSRGCAVVEFKMEESMKKAAEVLNKHSLSGRPLKVKEDPDGEHARRAMQKVMATTGGMGMGPGGPGMITIPPSILNNPNIPNEIIHALQAGRLGSTVFVANLDYKVGWKKLKEVFSMAGVVVRADILEDKDGKSRGIGTVTFEQSIEAVQAISMFNGQLLFDRPMHVKMDERALPKGDFFPPERPQQLPHGLGGIGMGLGPGGQPIDANHLNKGIGMGNIGPAGMGMEGIGFGINKMGGMEGPFGGGMENMGRFGSGMNMGRINEILSNALKRGEIIAKQGGGGGGGSVPGIERMGPGIDRLGGAGMERMGAGLGHGMDRVGSEIERMGLVMDRMGSVERMGSGIERMGPLGLDHMASSIERMGQTMERIGSGVERMGAGMGFGLERMAAPIDRVGQTIERMGSGVERMGPAIERMGLSMERMVPAGMGAGLERMGPVMDRMATGLERMGANNLERMGLERMGANSLERMGLERMGANSLERMGPAMGPALGAGIERMGLAMGGGGGASFDRAIEMERGNFGGSFAGSFGGAGGHAPGVARKACQIFVRNLPFDFTWKMLKDKFNECGHVLYADIKMENGKSKGCGVVKFESPEVAERACRMMNGMKLSGREIDVRIDRNA
On to B2, for which the binding entry is reported as “no binding” in assay [2] and “binds” in assay [3].
